Experimental data as given in PubChem BioAssay AID2147 (National Center for Advancing Translational Sciences (NCATS), 2009).
“And” between values parts separate entries of the source, which are not always exact repeats. Equal values may be shown once. In all, about 230,000 compounds went through this assay and about 3,600 (1.6%) were called active. This list was built around the results that the source calls inconclusive (neither active nor inactive); the mix of calls is not that of the screen. The call rests on the fitted dose curve; in most records, active means well fitted inhibition curve with a large enough effect (not every such curve was filed as active); inconclusive means small, poorly fitted or top-dose-only effect, or another doubt; inactive means no such curve, though single readings can be large or run the other way. Where the call is inconclusive, the potency comes from a doubtful curve fit.

target: Lysine-specific demethylase 4E (Homo sapiens) (UniProt B2RXH2); test: qHTS Assay for Inhibitors of Human Jumonji Domain Containing 2E (JMJD2E); details: JMJD2E catalytic domain, FDH-coupled NADH fluorescence (FDH is formaldehyde dehydrogenase); series mostly up to 57.1 µM
Sequence of UniProt B2RXH2 (B2RXH2 whole entry, looked up, the tested form may be a part): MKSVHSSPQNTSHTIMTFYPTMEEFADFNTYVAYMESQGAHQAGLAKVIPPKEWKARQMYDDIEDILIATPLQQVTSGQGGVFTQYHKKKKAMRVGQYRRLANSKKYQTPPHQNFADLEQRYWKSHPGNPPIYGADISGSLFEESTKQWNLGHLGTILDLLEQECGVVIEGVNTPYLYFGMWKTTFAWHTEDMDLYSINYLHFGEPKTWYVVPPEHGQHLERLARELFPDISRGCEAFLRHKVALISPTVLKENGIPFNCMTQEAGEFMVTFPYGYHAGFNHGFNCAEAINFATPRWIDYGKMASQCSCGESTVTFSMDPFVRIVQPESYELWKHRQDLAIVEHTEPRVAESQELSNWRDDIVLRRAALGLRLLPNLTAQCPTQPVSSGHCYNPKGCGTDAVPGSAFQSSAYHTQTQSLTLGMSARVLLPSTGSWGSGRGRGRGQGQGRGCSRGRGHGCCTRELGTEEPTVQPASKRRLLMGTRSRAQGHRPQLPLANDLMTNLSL
Further: nearly all actives have a fitted effect of over 50% in size.
Potency means the concentration at half of the fitted maximal effect; tags describe the fitted curve by direction and shape.
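Wherever activity change, negative = inhibition is given: 0% = wells with enzyme and -100% = buffer wells without enzyme.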

Question: `CCn1c(=O)c(C(=O)Nc2ccccc2C)c(O)c2ccccc21` was tested. Which Potency did it give?
Answer: inconclusive: 8.91 µM [inhibitor, single point]

Question: Which Potency does the source give for `CCC[C@@H]1C[C@@]1(CCC)C(NC(=O)c1ccccc1)c1cccc(Cl)c1` (some centres undefined) here?
Answer: inactive

Question: `COc1cc(NC(=S)N(C)C)c(OC)cc1Cl` was tested. Which Potency did it give?
Answer: inactive

Question: For `COc1ccccc1N1CCN(/N=C/c2cc([N+](=O)[O-])ccc2Cl)CC1`, which Potency is on record?
Answer: inactive

Question: `N#CC(C#N)=C1C=CC=CN1/C(=C\c1ccco1)C(=O)c1ccccc1` was tested. Which Potency did it give?
Answer: inactive

Question: How did the Potency turn out when `C=CC[n+]1ccc2ccccc2c1C` was run?
Answer: inconclusive: 25.1 µM [inhibitor, single point]

Question: How did the Potency turn out when `CN=C(NC#N)Nc1ccc(C2=NNC(=O)C[C@@H]2C)cc1` was run?
Answer: inconclusive: 39.8 µM [inhibitor, single point]

Question: With `Cc1ccc(C(=O)NNC(=O)C(C)Sc2nc(N)cc(N)n2)cc1` (centres undefined) as the compound, how does the Potency read?
Answer: inactive

Question: Which Potency does the source give for `Cc1nc2ccc(S(=O)(=O)Nc3cccc(-c4nc5cccnc5s4)c3C)cc2s1` here?
Answer: inconclusive: 35.5 µM [inhibitor, single point]

Question: For `CC(=O)Nc1nonc1-c1nc2ccccc2n1CC1CC1`, which Potency is on record?
Answer: inconclusive: 25.1 µM [inhibitor, partial curve]

Question: `Clc1ccc(-c2nc3ccccn3c2CN2CCSCC2)cc1` was tested. Which Potency did it give?
Answer: inconclusive: 35.5 µM [inhibitor, single point]

Question: `CCN1CCCC1CN=Cc1c(O)n(-c2ccccc2)c(=O)c2ccccc12` (centres undefined) was tested. Which Potency did it give?
Answer: inconclusive: 28.2 µM [inhibitor, partial curve]

Question: Which Potency does the source give for `Cc1ccsc1/C=N/n1c(COc2ccccc2)n[nH]c1=S` here?
Answer: inactive

Question: For `O=C(O)CSCC(=O)Nc1ccc(-c2nc3ccccc3s2)cc1`, which Potency is on record?
Answer: inconclusive: 28.2 µM [inhibitor, partial curve]

Question: `COc1ccccc1CNC(=O)Cc1ccc(Br)cc1` was tested. Which Potency did it give?
Answer: inactive

Question: `CN1c2ccccc2-c2nc3ccccc3n2C1c1ccncc1` (centres undefined) was tested. Which Potency did it give?
Answer: inconclusive: 35.5 µM [inhibitor, partial curve]

Question: How did the Potency turn out when `Cc1ccc(-n2ncc3c(N4CCC(C(N)=O)CC4)ncnc32)c(C)c1` was run?
Answer: inactive

Question: How did the Potency turn out when `COc1cccc(-n2nnc3c(=O)n(CC(=O)Nc4ccc(C)cc4)cnc32)c1` was run?
Answer: inactive

Question: For `CCOC(=O)CNC(=O)c1sc(NC(=O)/C=C/c2ccccc2)nc1C`, which Potency is on record?
Answer: inconclusive: 11.2 µM [inhibitor, partial curve]

Question: For `CCCC(=O)C1=C(O)C(C(=O)OC)C(C)(C)CC1=Nc1cccc2ccccc12` (centres undefined), which Potency is on record?
Answer: inactive

Question: For `O=c1cc(/C=C/c2ccccc2)oc2c1ccc1ccccc12`, which Potency is on record?
Answer: inconclusive: 3.55 µM [inhibitor, partial curve]

Question: `COC(=O)c1ccc(C(=O)OC)c(N)c1` was tested. Which Potency did it give?
Answer: inconclusive: 28.2 µM [inhibitor, partial curve]

Question: For `O=C(Nc1ccc(F)cc1F)N1CCCN(c2ccc([N+](=O)[O-])cn2)CC1`, which Potency is on record?
Answer: inactive

Question: For `CCOc1ccc(N=C2NC(=O)S/C2=C\c2ccc(O)cc2)cc1`, which Potency is on record?
Answer: inconclusive: 28.2 µM [inhibitor, single point]

Question: Which Potency does the source give for `COc1ccc2cc(C(=O)C3CCCN(C(=O)c4cc(=O)n(C)c(=O)n4C)C3)ccc2c1` (centres undefined) here?
Answer: inconclusive: 28.2 µM [inhibitor, partial curve]

Question: For `C=C(C)Cc1c(C)c(C#N)c2nc3ccccc3n2c1NCCCN(C)C`, which Potency is on record?
Answer: inconclusive: 31.6 µM [inhibitor, partial curve]

Question: How did the Potency turn out when `O=c1c2ccccc2nc2n1CCC2` was run?
Answer: active: 8.91 µM

Question: Which Potency does the source give for `CSc1nsc(/C=C/Nc2ccc(F)cc2F)c1C#N` here?
Answer: inconclusive: 28.2 µM [inhibitor, single point]

Question: Which Potency does the source give for `NS(=O)(=O)c1ccc(NNC(=O)c2ccccc2)cc1` here?
Answer: inactive

Question: Which Potency does the source give for `Cc1cccc(-n2nc(C)c3c(C(=O)O)cc(-c4cccs4)nc32)c1` here?
Answer: inconclusive: 28.2 µM [inhibitor, partial curve]

Question: `CS(=O)(=O)NCCSc1cc(C(F)(F)F)nc2ccccc12` was tested. Which Potency did it give?
Answer: inactive

Question: With `Cc1ccc2c(Cl)cc(Cl)c(OCC(=O)N3CCCC3)c2n1` as the compound, how does the Potency read?
Answer: inconclusive: 28.2 µM [inhibitor, partial curve]

Question: How did the Potency turn out when `CCOC(=O)/C(C(=O)Nc1ccccc1Cl)=C1/NC(C)(C)Cc2ccccc21` was run?
Answer: inactive

Question: Which Potency does the source give for `CC(=O)c1c(C)nc(-c2ccc(Cl)cc2)nc1N=CN(C)C` here?
Answer: inconclusive: 12.6 µM [inhibitor, partial curve]

Question: Which Potency does the source give for `CC(Oc1ccc(Cl)cc1)C(=O)NNC(=S)NC(=O)c1ccco1` (centres undefined) here?
Answer: active: 20 µM

Question: How did the Potency turn out when `CNC(=S)Nc1sc2c(c1C(=O)OC)CCC2` was run?
Answer: inconclusive: 35.5 µM [inhibitor, single point]

Question: `COc1ccc(N2CCN(C3CC(=O)N(C)C3=O)CC2)cc1` (centres undefined) was tested. Which Potency did it give?
Answer: inactive

Question: Which Potency does the source give for `Cc1ccccc1OCc1nnc(SCC(=O)Nc2ccc3c(c2)oc2ccccc23)n1C` here?
Answer: inconclusive: 35.5 µM [inhibitor, single point]

Question: How did the Potency turn out when `CCOc1cccc2sc(NC(=O)c3ccc(Br)s3)nc12` was run?
Answer: inconclusive: 28.2 µM [inhibitor, partial curve]

Question: Which Potency does the source give for `O=C(COC(=O)CNS(=O)(=O)c1c(Cl)cccc1Cl)Nc1cccnc1Cl` here?
Answer: inactive

Question: With `Cc1sc(NC(=O)c2cccs2)c(C(N)=O)c1C` as the compound, how does the Potency read?
Answer: inactive

Question: With `Cc1cc(C)c(C)c(OCCCn2ccnc2)c1` as the compound, how does the Potency read?
Answer: inconclusive: 28.2 µM [inhibitor, single point]

Question: With `COc1ccc(C2Nc3ccccc3C(=O)N2NC(C)=O)cc1OC` (centres undefined) as the compound, how does the Potency read?
Answer: inconclusive: 31.6 µM [inhibitor, partial curve]

Question: How did the Potency turn out when `Cc1ccccc1NC(=O)/C(C#N)=C\c1cc(C)n(-c2ccc(C(=O)O)cc2)c1C` was run?
Answer: active: 20 µM

Question: `CCOc1c2ccc(C(=O)NCc3ccc4c(c3)OCO4)cc2nn1C` was tested. Which Potency did it give?
Answer: inconclusive: 31.6 µM [inhibitor, partial curve]

Question: For `CC(=O)C1=C(C)NC(SCC(=O)c2ccccc2)=C(C#N)C1CC(C)C` (centres undefined), which Potency is on record?
Answer: inconclusive: 22.4 µM [inhibitor, single point]

Question: How did the Potency turn out when `CC(=O)Nc1ccc(S(=O)(=O)N(CCCN2CCOCC2)Cc2cccs2)cc1` was run?
Answer: inconclusive: 31.6 µM [inhibitor, single point]

Question: How did the Potency turn out when `COc1ccc(Nc2ccc(N3C(=O)CCCC3=O)cc2[N+](=O)[O-])cc1OC` was run?
Answer: inactive

Question: With `COc1ccc(-c2nc3c(c4c2C[C@H](c2ccccc2)OC4)CN(S(=O)(=O)c2ccc(NC(C)=O)cc2)CC3)c(C)c1` as the compound, how does the activity change, negative = inhibition read?
Answer: inactive: 4.56% [at 11.4 µM]

Question: How did the Potency turn out when `CCOC(=O)c1c(C)n(CC(O)c2ccccc2)c2ccc(O)cc12` (centres undefined) was run?
Answer: inactive

Question: For `CCc1ccc(C(=O)c2ccccc2C(=O)O)s1`, which Potency is on record?
Answer: inactive

Question: `O=C(NN1C(=O)c2ccccc2NC1c1cccnc1)c1ccccc1` (centres undefined) was tested. Which Potency did it give?
Answer: inconclusive: 25.1 µM [inhibitor, partial curve]

Question: Which Potency does the source give for `C[C@H](Nc1ncnc2sc3c(c12)CCC3)C(=O)O` here?
Answer: inactive

Question: Which Potency does the source give for `CCOC(=O)c1[nH]c2ccc(OC)cc2c1NC(=O)CCN1CCCC(C)C1` (centres undefined) here?
Answer: inconclusive: 25.1 µM [inhibitor, partial curve]

Question: How did the Potency turn out when `Cc1cccn2c(=O)c(C=NCc3ccccc3)c(NCCO)nc12` was run?
Answer: inconclusive: 28.2 µM [inhibitor, partial curve]

Question: Which Potency does the source give for `CCOC(=O)Cc1cc(=O)n(-c2nc3ccccc3s2)[nH]1` here?
Answer: inconclusive: 39.8 µM [inhibitor, single point]

Question: For `O=C(OCn1nnc2ccccc2c1=O)c1cc(-c2ccccc2)nc2ccccc12`, which Potency is on record?
Answer: inconclusive: 6.31 µM [inhibitor, single point]

Question: Which Potency does the source give for `Cc1nc2ccccc2nc1N/N=C/c1ccc(O)cc1O` here?
Answer: inconclusive: 35.5 µM [inhibitor, single point]

Question: `Cc1ccccc1/C=N\NC(=O)c1ccccc1-n1cccc1` was tested. Which Potency did it give?
Answer: inactive

Question: `COc1ccc(Br)cc1C(=O)Nc1cccc(C)c1C` was tested. Which Potency did it give?
Answer: inconclusive: 7.08 µM [inhibitor, single point]

Question: Which Potency does the source give for `CCN1C(=O)c2cccc3c(S(=O)(=O)NCc4ccco4)ccc1c23` here?
Answer: inconclusive: 25.1 µM [inhibitor, single point]

Question: How did the Potency turn out when `Cn1c(=O)c(C(=O)Nc2ncccn2)c(O)c2ccccc21` was run?
Answer: inconclusive: 3.98 µM [inhibitor, single point]

Question: Which Potency does the source give for `CNCCCC1c2ccccc2C=Cc2ccccc21` here?
Answer: inconclusive: 14.1 µM [inhibitor, partial curve] and inconclusive: 39.8 µM [inhibitor, single point] and inconclusive: 22.4 µM [inhibitor, single point]

Question: For `CCOC(=O)c1c(NC(=O)Nc2ccc(C)cc2)sc2c1CCN(C)C2`, which Potency is on record?
Answer: inconclusive: 31.6 µM [inhibitor, single point]

Question: `O=C1C(Nc2ccccc2)=C2CCCC=C2N1c1ccccc1` was tested. Which Potency did it give?
Answer: inactive

Question: How did the Potency turn out when `Cc1cccn2c(=O)c3cc(C(=O)NC4CCCCC4)c(=N)n(CCN4CCOCC4)c3nc12` was run?
Answer: inconclusive: 2.51 µM [inhibitor, partial curve]

Question: With `COc1cccc2[nH]c3c(=O)n(CCN(C)C)cnc3c12` as the compound, how does the Potency read?
Answer: inconclusive: 25.1 µM [inhibitor, partial curve]

Question: For `CCc1cc2c(=O)c(-c3nc4ccccc4n3C)c(C)oc2c(CN(CC)CC)c1O`, which Potency is on record?
Answer: inconclusive: 31.6 µM [inhibitor, partial curve]

Question: How did the Potency turn out when `Nc1c(C(=O)O)cnc2c(-c3ccc(Cl)cc3)cnn12` was run?
Answer: inconclusive: 25.1 µM [inhibitor, partial curve]

Question: Which Potency does the source give for `CCc1ccc2[nH]c3nc(C)cc(C)c3c(=O)c2c1` here?
Answer: inconclusive: 11.2 µM [inhibitor, partial curve]

Question: With `COc1ccccc1-c1noc(-c2ccccc2)n1` as the compound, how does the Potency read?
Answer: inactive

Question: Which Potency does the source give for `CCCCCCC[N+](CC)(CC)CCCCc1ccc(Cl)cc1` here?
Answer: inactive

Question: For `COCCN=C1Sc2nc3c(C)cccc3cc2CN1Cc1ccco1`, which Potency is on record?
Answer: inconclusive: 39.8 µM [inhibitor, single point]

Question: How did the Potency turn out when `CCC(C)NC(=S)N1CCN(Cc2ccc3c(c2)OCO3)CC1` (centres undefined) was run?
Answer: inconclusive: 35.5 µM [inhibitor, single point]
